# B1: GLP-1RA/FGF21 Fc fusion protein SEQ ID NO: 142 (Fc fusion)
# chain: HGEGTFTSDKSQLLEKRLAHLFIEWLIAGGHKSGKYSPKGGGGGGGSGGGGSGGGGSA[… human IgG4 Fc with changes …]GGGSGSAHPIPDSSPLLQFGGQVRQRYLYTDDACQTEAHLEIREDGTVGGAADQSPESLLQLKALKPGVIQILGVKTSRFLCQRPDGALYGSLHFDPEACSFRELLLEDGYNVYQSEAHGLPLHLPGCKSPHRDPAPRGPARFLPLPGLPPAPPEPPGILAPQPPDVGSSDPLSMVGSQGRSPSYAS
# B2: GLP-1RA/FGF21 Fc fusion protein SEQ ID NO: 118 (Fc fusion)
# chain: HGEGTFTSDKSQLLEKRLAHLFIEWLIAGGHSKIKYPPKGGGGGGGSGGGGSGGGGSA[… human IgG4 Fc with changes …]GGGSGSAHPIPDSSPLLQFGGQVRQRYLYTDDACQTEAHLEIREDGTVGGAADQSPESLLQLKALKPGVIQILGVKTSRFLCQRPDGALYGSLHFDPEACSFRELLLEDGYNVYQSEAHGLPLHLPGCKSPHRDPAPRGPARFLPLPGLPPAPPEPPGILAPQPPDVGSSDPLSMVGSQGRSPSYAS
# B3: GLP-1RA/FGF21 Fc fusion protein SEQ ID NO: 127 (Fc fusion)
# chain: HGEGTFTSDKSQLLEKRLAHLFIEWLIKGGHSSGRPPPKGGGGGGGSGGGGSGGGGSA[… human IgG4 Fc with changes …]GGGSGSAHPIPDSSPLLQFGGQVRQRYLYTDDACQTEAHLEIREDGTVGGAADQSPESLLQLKALKPGVIQILGVKTSRFLCQRPDGALYGSLHFDPEACSFRELLLEDGYNVYQSEAHGLPLHLPGCKSPHRDPAPRGPARFLPLPGLPPAPPEPPGILAPQPPDVGSSDPLSMVGSQGRSPSYAS
# B4: GLP-1RA/FGF21 Fc fusion protein SEQ ID NO: 132 (Fc fusion)
# chain: HGEGTFTSDKSQLLEKRLAHLFIEWLLAGGHSSGKLSPKGGGGGGGSGGGGSGGGGSA[… human IgG4 Fc with changes …]GGGSGSAHPIPDSSPLLQFGGQVRQRYLYTDDACQTEAHLEIREDGTVGGAADQSPESLLQLKALKPGVIQILGVKTSRFLCQRPDGALYGSLHFDPEACSFRELLLEDGYNVYQSEAHGLPLHLPGCKSPHRDPAPRGPARFLPLPGLPPAPPEPPGILAPQPPDVGSSDPLSMVGSQGRSPSYAS
# B5: GLP-1RA/FGF21 Fc fusion protein SEQ ID NO: 123 (Fc fusion)
# chain: HGEGTFTSDKSKLLEKRLAHLFIEWLIKGGHSSIKPPPKGGGGGGGSGGGGSGGGGSA[… human IgG4 Fc with changes …]GGGSGSAHPIPDSSPLLQFGGQVRQRYLYTDDACQTEAHLEIREDGTVGGAADQSPESLLQLKALKPGVIQILGVKTSRFLCQRPDGALYGSLHFDPEACSFRELLLEDGYNVYQSEAHGLPLHLPGCKSPHRDPAPRGPARFLPLPGLPPAPPEPPGILAPQPPDVGSSDPLSMVGSQGRSPSYAS
# B6: GLP-1RA/FGF21 Fc fusion protein SEQ ID NO: 108 (Fc fusion)
# chain: YGEGTFTSDKSQLLEERLVHLFIEWLIAGGHSKIKPPPKGGGGGGGSGGGGSGGGGSA[… human IgG4 Fc with changes …]GGGSGSAHPIPDSSPLLQFGGQVRQRYLYTDDACQTEAHLEIREDGTVGGAADQSPESLLQLKALKPGVIQILGVKTSRFLCQRPDGALYGSLHFDPEACSFRELLLEDGYNVYQSEAHGLPLHLPGCKSPHRDPAPRGPARFLPLPGLPPAPPEPPGILAPQPPDVGSSDPLSMVGSQGRSPSYAS
# B7: GLP-1RA/FGF21 Fc fusion protein SEQ ID NO: 122 (Fc fusion)
# chain: HGEGTFTSDKSQLLEKRLAHLFIEWLIAGGHSSIKPPPKGGGGGGGSGGGGSGGGGSA[… human IgG4 Fc with changes …]GGGSGSAHPIPDSSPLLQFGGQVRQRYLYTDDACQTEAHLEIREDGTVGGAADQSPESLLQLKALKPGVIQILGVKTSRFLCQRPDGALYGSLHFDPEACSFRELLLEDGYNVYQSEAHGLPLHLPGCKSPHRDPAPRGPARFLPLPGLPPAPPEPPGILAPQPPDVGSSDPLSMVGSQGRSPSYAS
# B8: GLP-1RA/FGF21 Fc fusion protein SEQ ID NO: 106 (Fc fusion)
# chain: HGEGTFTSDKSQLLEERLAHLFIEWLIAGGHSSGRPPPKGGGGGGGSGGGGSGGGGSA[… human IgG4 Fc with changes …]GGGSGSAHPIPDSSPLLQFGGQVRQRYLYTDDACQTEAHLEIREDGTVGGAADQSPESLLQLKALKPGVIQILGVKTSRFLCQRPDGALYGSLHFDPEACSFRELLLEDGYNVYQSEAHGLPLHLPGCKSPHRDPAPRGPARFLPLPGLPPAPPEPPGILAPQPPDVGSSDPLSMVGSQGRSPSYAS
# B9: GLP-1RA/FGF21 Fc fusion protein SEQ ID NO: 116 (Fc fusion)
# chain: HGEGTFTSDKSQLLEKRLAHLFIEWLIAGGPSKGKPPPKGGGGGGGSGGGGSGGGGSA[… human IgG4 Fc with changes …]GGGSGSAHPIPDSSPLLQFGGQVRQRYLYTDDACQTEAHLEIREDGTVGGAADQSPESLLQLKALKPGVIQILGVKTSRFLCQRPDGALYGSLHFDPEACSFRELLLEDGYNVYQSEAHGLPLHLPGCKSPHRDPAPRGPARFLPLPGLPPAPPEPPGILAPQPPDVGSSDPLSMVGSQGRSPSYAS
# B10: GLP-1RA/FGF21 Fc fusion protein SEQ ID NO: 134 (Fc fusion)
# chain: HGEGTFTSDKSKLLEKRLAHLFIEWLIKGGHKSGKPPPKGGGGGGGSGGGGSGGGGSA[… human IgG4 Fc with changes …]GGGSGSAHPIPDSSPLLQFGGQVRQRYLYTDDACQTEAHLEIREDGTVGGAADQSPESLLQLKALKPGVIQILGVKTSRFLCQRPDGALYGSLHFDPEACSFRELLLEDGYNVYQSEAHGLPLHLPGCKSPHRDPAPRGPARFLPLPGLPPAPPEPPGILAPQPPDVGSSDPLSMVGSQGRSPSYAS
# B11: GLP-1RA/FGF21 Fc fusion protein SEQ ID NO: 143 (Fc fusion)
# chain: HGEGTFTSDKSQLLEKRLAHLFIEWLLKGGHSKGKPPPKGGGGGGGSGGGGSGGGGSA[… human IgG4 Fc with changes …]GGGSGSAHPIPDSSPLLQFGGQVRQRYLYTDDACQTEAHLEIREDGTVGGAADQSPESLLQLKALKPGVIQILGVKTSRFLCQRPDGALYGSLHFDPEACSFRELLLEDGYNVYQSEAHGLPLHLPGCKSPHRDPAPRGPARFLPLPGLPPAPPEPPGILAPQPPDVGSSDPLSMVGSQGRSPSYAS
# B12: GLP-1RA/FGF21 Fc fusion protein SEQ ID NO: 133 (Fc fusion)
# chain: HGEGTFTSDKSQLLEKRLAHLFIEWLIKGGHSKQKPPPKGGGGGGGSGGGGSGGGGSA[… human IgG4 Fc with changes …]GGGSGSAHPIPDSSPLLQFGGQVRQRYLYTDDACQTEAHLEIREDGTVGGAADQSPESLLQLKALKPGVIQILGVKTSRFLCQRPDGALYGSLHFDPEACSFRELLLEDGYNVYQSEAHGLPLHLPGCKSPHRDPAPRGPARFLPLPGLPPAPPEPPGILAPQPPDVGSSDPLSMVGSQGRSPSYAS
# B13: GLP-1RA/FGF21 Fc fusion protein SEQ ID NO: 115 (Fc fusion)
# chain: YGEGTFTSDKSQLLEKRLAHLFIEWLIKGGHSSIKPPPKGGGGGGGSGGGGSGGGGSA[… human IgG4 Fc with changes …]GGGSGSAHPIPDSSPLLQFGGQVRQRYLYTDDACQTEAHLEIREDGTVGGAADQSPESLLQLKALKPGVIQILGVKTSRFLCQRPDGALYGSLHFDPEACSFRELLLEDGYNVYQSEAHGLPLHLPGCKSPHRDPAPRGPARFLPLPGLPPAPPEPPGILAPQPPDVGSSDPLSMVGSQGRSPSYAS
# B14: GLP-1RA/FGF21 Fc fusion protein SEQ ID NO: 126 (Fc fusion)
# chain: HGEGTFTSDKSKLLEKRAAHLFIEWLIAGGHSSIKPPPKGGGGGGGSGGGGSGGGGSA[… human IgG4 Fc with changes …]GGGSGSAHPIPDSSPLLQFGGQVRQRYLYTDDACQTEAHLEIREDGTVGGAADQSPESLLQLKALKPGVIQILGVKTSRFLCQRPDGALYGSLHFDPEACSFRELLLEDGYNVYQSEAHGLPLHLPGCKSPHRDPAPRGPARFLPLPGLPPAPPEPPGILAPQPPDVGSSDPLSMVGSQGRSPSYAS
# B15: GLP-1RA/FGF21 Fc fusion protein SEQ ID NO: 144 (Fc fusion)
# chain: HGEGTFTSDKSQLLEKRLAHLFIEWLIKGGPSSIKPPPKGGGGGGGSGGGGSGGGGSA[… human IgG4 Fc with changes …]GGGSGSAHPIPDSSPLLQFGGQVRQRYLYTDDACQTEAHLEIREDGTVGGAADQSPESLLQLKALKPGVIQILGVKTSRFLCQRPDGALYGSLHFDPEACSFRELLLEDGYNVYQSEAHGLPLHLPGCKSPHRDPAPRGPARFLPLPGLPPAPPEPPGILAPQPPDVGSSDPLSMVGSQGRSPSYAS
# B16: GLP-1RA/FGF21 Fc fusion protein SEQ ID NO: 135 (Fc fusion)
# chain: HGEGTFTSDKSQLLEERLVHLFIEWLIAGGHSSGKLPPKGGGGGGGSGGGGSGGGGSA[… human IgG4 Fc with changes …]GGGSGSAHPIPDSSPLLQFGGQVRQRYLYTDDACQTEAHLEIREDGTVGGAADQSPESLLQLKALKPGVIQILGVKTSRFLCQRPDGALYGSLHFDPEACSFRELLLEDGYNVYQSEAHGLPLHLPGCKSPHRDPAPRGPARFLPLPGLPPAPPEPPGILAPQPPDVGSSDPLSMVGSQGRSPSYAS
# B17: GLP-1RA/FGF21 Fc fusion protein SEQ ID NO: 109 (Fc fusion)
# chain: YGEGTFTSDKSQLLEKELAHLFIEWLIAGGHKSGRPSPKGGGGGGGSGGGGSGGGGSA[… human IgG4 Fc with changes …]GGGSGSAHPIPDSSPLLQFGGQVRQRYLYTDDACQTEAHLEIREDGTVGGAADQSPESLLQLKALKPGVIQILGVKTSRFLCQRPDGALYGSLHFDPEACSFRELLLEDGYNVYQSEAHGLPLHLPGCKSPHRDPAPRGPARFLPLPGLPPAPPEPPGILAPQPPDVGSSDPLSMVGSQGRSPSYAS
# B18: GLP-1RA/FGF21 Fc fusion protein SEQ ID NO: 139 (Fc fusion)
# chain: HGEGTFTSDKSQLLEKRAAHLFIEWLIAGGHSSGKLSPKGGGGGGGSGGGGSGGGGSA[… human IgG4 Fc with changes …]GGGSGSAHPIPDSSPLLQFGGQVRQRYLYTDDACQTEAHLEIREDGTVGGAADQSPESLLQLKALKPGVIQILGVKTSRFLCQRPDGALYGSLHFDPEACSFRELLLEDGYNVYQSEAHGLPLHLPGCKSPHRDPAPRGPARFLPLPGLPPAPPEPPGILAPQPPDVGSSDPLSMVGSQGRSPSYAS
# Biological target: human glucagon-like peptide-1 (GLP-1) receptor (human, UniProt P43220 24-463)
# Test: cell-based or functional assay
row,Binder,HTRF cAMP EC50
1,B1,0.0129 nM
2,B2,0.0183 nM
3,B3,0.0103 nM
4,B4,0.00848 nM
5,B5,0.0127 nM
6,B6,0.326 nM
7,B7,0.0145 nM
8,B8,0.00966 nM
9,B9,0.0106 nM
10,B10,0.0173 nM
11,B11,0.0142 nM
12,B12,0.0134 nM
13,B13,0.0922 nM
14,B14,0.00851 nM
15,B15,0.0162 nM
16,B16,0.0115 nM
17,B17,0.278 nM
18,B18,0.00735 nM
